# PubChem BioAssay AID488969 (Vanderbilt High Throughput Screening Facility, 2010)
# Over roughly 110,000 compounds, “z-score” has its median near -0.1; the highest 2% begin near 2. The list shows a part of the results. Calls of active or inactive are those of the source.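 How the source made its calls: active means z-score in the third read window above 3 or below -3; inactive means the rest.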
# Target: Metabotropic glutamate receptor 8 (Rattus norvegicus) (UniProt P70579)
# Test: rat mGluR8 modulators via GIRK flux, primary screen, cell-based, thallium flux, HTS (AID 488969)
# Conditions: HEK293 rat mGluR8, GIRK (G protein-gated inwardly rectifying potassium channel) thallium flux, FluoZin2; at 10 µM; stronger effect = higher value; submaximal glutamate (EC20) added with thallium
# Sequence of UniProt P70579 (P70579 whole entry, looked up): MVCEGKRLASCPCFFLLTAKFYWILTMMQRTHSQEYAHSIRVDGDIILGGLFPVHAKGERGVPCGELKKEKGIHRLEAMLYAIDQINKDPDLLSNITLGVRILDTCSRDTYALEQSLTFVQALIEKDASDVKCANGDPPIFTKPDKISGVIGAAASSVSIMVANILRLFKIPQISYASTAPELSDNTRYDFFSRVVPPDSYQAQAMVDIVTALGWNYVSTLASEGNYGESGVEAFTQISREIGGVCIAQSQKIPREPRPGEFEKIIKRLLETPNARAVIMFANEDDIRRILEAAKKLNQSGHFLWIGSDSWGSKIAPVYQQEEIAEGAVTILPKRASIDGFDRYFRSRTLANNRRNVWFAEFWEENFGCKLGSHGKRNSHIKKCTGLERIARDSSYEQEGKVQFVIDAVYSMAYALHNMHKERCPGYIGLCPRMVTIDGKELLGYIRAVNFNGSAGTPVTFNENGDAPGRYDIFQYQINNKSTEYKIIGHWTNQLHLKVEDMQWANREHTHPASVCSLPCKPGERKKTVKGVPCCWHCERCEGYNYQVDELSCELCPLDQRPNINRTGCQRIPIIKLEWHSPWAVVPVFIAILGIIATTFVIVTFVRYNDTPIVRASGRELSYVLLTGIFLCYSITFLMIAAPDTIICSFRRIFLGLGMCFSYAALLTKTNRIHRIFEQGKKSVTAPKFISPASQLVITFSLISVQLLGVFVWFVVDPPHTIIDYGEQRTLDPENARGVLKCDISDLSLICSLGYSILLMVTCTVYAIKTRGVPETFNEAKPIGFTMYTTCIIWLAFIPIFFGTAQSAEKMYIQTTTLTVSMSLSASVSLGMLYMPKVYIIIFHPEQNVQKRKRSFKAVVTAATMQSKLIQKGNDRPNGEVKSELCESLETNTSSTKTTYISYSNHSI
row,Structure (SMILES),z-score
1,CC(=S)c1c(C)cc2cc(C)ccn12,-0.235
2,Cc1ccc(C(C(=O)NC2CCCC2)N(C(=O)Cc2cccs2)c2cccc(C)c2C)o1 (centres undefined),-0.0917
3,CCCCCCCCCCSc1n[nH]c(NC(C)=O)n1,-0.0883
4,Cc1[nH]n(C(N)=S)c(=O)c1N=Nc1ccc(S(=O)(=O)N2CCCCCC2)cc1,0.00773
5,CC1CCCCC1NC(=O)C1CC=CCC1C(=O)O (centres undefined),-0.15
6,CCCCn1[nH]c(-c2ccccc2)cc1=O,-0.279
7,N#CC(C#N)=Cc1cc2ccccc2nc1N1CCOCC1,-0.253
8,COc1cc2cnncc2cc1OC,active: 3.21
9,O=C(CCC(=O)c1cccs1)Nc1ccc(F)c(F)c1F,0.32
10,CCOc1cc(/C=C/c2cc(C(=O)O)c3ccccc3n2)ccc1O,-0.427
11,CCn1c(SCC(=O)Nc2cc(C)on2)nnc1-c1cccs1,0.713
12,COc1cc2cc(Br)cc(Br)c2nc1C,0.329
13,CCOC(=O)c1c(-c2ccc(-c3ccccc3)cc2)csc1NC(=O)c1cccc(N2C(=O)CCC2=O)c1,-0.196
14,COc1cc2[nH]c(=O)n(Cc3ccccc3Cl)c(=O)c2cc1OC,-0.093
15,O=C1C2C3C=CC(C3)C2C(=O)N1CNc1ccccn1 (centres undefined),-0.247
16,C=CCn1c(SCC(=O)Nc2nc(C)cs2)nnc1C(C)NC(=O)c1ccccc1Cl (centres undefined),0.00107
17,CC(C)(C)c1ccc(-c2nnc3sc(-c4ccccn4)nn23)cc1,-0.355
18,O=C(Nc1ccccc1)OCN1C(=O)c2ccccc2C1=O,-0.2
19,O=C(/C=C/c1c(F)cccc1Cl)NCc1ccco1,-0.0574
20,COCCNC(=O)C(=O)Nc1ccc(Br)cc1,-0.315
21,CCOC(=O)c1cnc2ccc(Cl)cc2c1NCCN(C)C,-0.278
22,COCCOC(=O)c1sc(=S)n(CCOC)c1N,-0.268

row,Structure (SMILES),z-score
1,C=CCn1c(C)cc(C(=O)CSc2nc3ccccc3[nH]2)c1C,-0.0561
2,CCOc1ccccc1C1C(C#N)=C(N)SC(N)=C1C#N,0.194
3,O=C(CSc1nnnn1-c1cccnc1)Nc1ccc(OCc2ccccc2)cc1,-0.183
4,COc1ccc(Cn2c(C)ccc2C)cc1,0.0636
5,CC1CN(Cc2ccccc2)c2nc3c(c(=O)n(C)c(=O)n3C)n2C1 (centres undefined),-0.166
6,CC1CCN(CCC(=O)Nc2ccc3c(c2)CCC3)CC1,0.34
7,CCN(CC)S(=O)(=O)c1cccc(NC(=O)C2SC(=Nc3ccc(C)cc3C)C(C(=O)NC(C)COC)=C2N)c1 (centres undefined),-0.161
8,O=C(NCC1OCCc2ccccc21)c1ccc(NC(=O)c2cccc(Br)c2)cc1 (centres undefined),-0.693
9,c1ccc2oc(C3=NNC(=NC4CC4)SC3)cc2c1,0.234
10,O=C(COc1ccccc1C(=O)N/N=C\c1ccc(O)c(O)c1)N/N=C/c1ccc(O)c(O)c1,-0.213
11,COc1cc2c3c(c1)c(C1=NC(=S)NC1=O)c(O)n3C(C)(C)C=C2C,0.00901
12,CN(C)S(=O)(=O)c1cccc(NC(=O)COC(=O)c2cccc(S(=O)(=O)N3CCc4ccccc4C3)c2)c1,0.242
13,COc1ccc(NS(=O)(=O)c2ccc(N3CCOCC3)c(NC(=O)c3ccccc3Cl)c2)cc1,-0.15
14,CCNc1nc(Oc2ccc(=O)n(-c3ccccc3)n2)nc(N(C)C)n1,0.025
15,O=C(Nc1ccc(S(=O)(=O)NCc2cccnc2)cc1)c1ccccc1Cl,-0.161
16,COc1ccc(CNC(=O)C2CCCN(S(=O)(=O)c3c(C)nn(C)c3C)C2)cc1 (centres undefined),0.876
17,COc1ccc(C(=O)NC(=S)NCCO)cc1Br,active: 4.72
18,CC(C)N(Cc1nc(-c2ccccc2)no1)C(=O)c1ccc(Br)o1,-0.82
19,CCCS(=O)(=O)N1CCN(c2ccccc2F)CC1,0.314
20,Cc1ccc(CCNC(=O)C23CN(Cc4ccccc4)CC2C(c2cccc([N+](=O)[O-])c2)=NO3)cc1 (centres undefined),-0.443
21,O=C(Nc1ccc2c(c1)OCO2)c1ccccc1SCC(=O)N1CCCC1,-1.45
22,O=C(OCc1cc(-c2ccccc2)no1)c1ccc2ccccc2n1,-0.167

row,Structure (SMILES),z-score
1,CC(C)(C)c1ccc(C(=O)NNC(=O)Cc2ccccc2)cc1,0.216
2,O=C(O)CCN1C(=O)c2ccc(NC(=O)CSc3ccccc3)cc2C1=O,-0.205
3,COc1ccc(-c2nnn(CCC(=O)O)n2)cc1,-0.434
4,Nc1nonc1-c1nc2ccccc2n1CC(=O)N/N=C\c1ccc(-c2ccc(Cl)cc2)o1,-1.01
5,CCCC12CN3CC(C)(CN(C1)C3c1ccc(OC(C)C)cc1)C2=O (centres undefined),-0.246
6,CCOC(=O)c1ccc(N2C(=O)CC(N3CCC(O)(c4ccc(Br)cc4)CC3)C2=O)cc1 (centres undefined),0.185
7,O=S(=O)(c1ccc(Br)s1)N1CCc2ccccc2C1,-0.99
8,Cn1c(=O)[nH]c(=O)c2c1nc(CN1CCN(c3ccc(F)cc3)CC1)n2CCc1ccccc1,-0.85
9,Cc1cc(C(=O)Nc2cccnc2)cs1,-0.072
10,COc1ccc(C(=O)CN2CCN(S(=O)(=O)c3cccc([N+](=O)[O-])c3)CC2)cc1,-2.48
11,Cc1cc(Cl)c(S(=O)(=O)N2CCSCC2)cc1OCC(=O)NC1CCCCC1,-0.118
12,CCc1ccc(OCC(=O)Nc2ccc(-c3cc4ccccc4oc3=O)c(OC)c2)cc1,1.19
13,Cc1cc(C)c(-n2c(C)cc(/C=C3/NC(=O)NC3=O)c2C)c(C)c1,2.07
14,Nc1c(N)c2ccccc2oc1=O,0.0652
15,COc1ccccc1NC(=O)Cc1noc(CSc2nnc(C)s2)n1,-0.388
16,CCCn1c(=NC(C)=O)c(C#N)cc2c(=O)n3cccc(C)c3nc21,-0.594
17,COc1ccc(S(=O)(=O)NCc2cccs2)cc1,-0.0134
18,O=C(Nc1ccc(S(=O)(=O)N2CCCCC2)cc1)c1ccc(CN2CCOCC2)cc1,-0.0617
19,CCOc1ccc2nc(/N=C/c3nc(-c4ccccc4)oc3O)sc2c1,0.486
20,O=C(CC(=O)c1ccccc1)Nc1ccc2c(c1)OCCO2,-0.987
21,N#CC(C#N)=NNc1ccc(S(=O)(=O)N2CCCC2)cc1,0.271
22,Cc1ccc(S(=O)(=O)Nc2cc(C(C(=O)OC(C)C)C(=O)C(F)(F)F)c(O)c3ccccc23)c(C)c1 (centres undefined),-0.651

row,Structure (SMILES),z-score
1,Cc1ccc(NC(=O)c2cccc(N3C(=O)CCC3=O)c2)nc1,-0.269
2,O=C(Nc1nccs1)c1ccc(NC(=O)c2ccco2)cc1,-0.23
3,O=C(NCc1ccccn1)c1cc2cc(Br)ccc2oc1=O,0.154
4,COc1ccc(CN2C(=O)c3ccccc3C2C(=O)NCC2CCCO2)c(OC)c1 (centres undefined),-0.0786
5,O=C1C2C3C=CC(C3=C(c3ccccc3)c3ccccc3)C2C(=O)N1CCO (centres undefined),-0.246
6,O=C(NCc1ccc2c(c1)OCO2)C1CCN(c2ccc(S(=O)(=O)N3CCCC3)cc2)CC1,-0.597
7,COc1nccnc1NS(=O)(=O)c1ccc(NC(=S)NC(=O)c2ccc(F)cc2)cc1,-0.21
8,CSCC[C@H](NC(=O)c1ccc(Cl)c(S(=O)(=O)N2CCCC2)c1)c1nc2ccccc2[nH]1,-0.496
9,CCOC(=O)c1c(-c2ccccc2)csc1NC(=O)c1ccc(S(=O)(=O)N2CCOCC2)cc1,1.04
10,COc1cc2cc(C(c3nnnn3C3CCCC3)N3CCc4ccccc43)c(=O)[nH]c2cc1OC (centres undefined),1.39
11,FC(F)(F)c1nc(N2CCCC2)ncc1-c1nnnn1-c1ccccc1,-0.441
12,Cc1ccccc1C(=O)/C(C#N)=N/Nc1c(C)n(C)n(-c2ccccc2)c1=O,-0.305
13,N#Cc1ccc(NC(=O)COC(=O)C2=COCCO2)cc1,-0.532
14,O=C(CCN1C(=O)c2ccccc2C1=O)N(CCO)Cc1ccccc1,0.0525
15,COc1ccccc1OCC(=O)NCC1CCCCC1,-0.0542
16,Cn1c(C(=O)NCCN2CCOCC2)cc2c(=O)n(C)c3ccccc3c21,-2.82
17,CCCn1c(SCC(=O)N2CCCc3ccccc32)nc2c1c(=O)n(C)c(=O)n2C,0.812
18,COc1ccc(N2C(=O)CCC(C(=O)NCc3ccccn3)C2c2ccc(F)cc2)cc1 (centres undefined),0.0745
19,O=C(N/C(=C/c1cccs1)C(=O)N1CCCCCC1)c1ccccc1,-0.352
20,CC1(C)CC2CC(C)(CN2C(=O)C23CCC(C)(C(=O)C2)C3(C)C)C1 (centres undefined),-0.132
21,CCN(C(=O)COC(=O)c1cccnc1Nc1cccc(C(F)(F)F)c1)C1CCS(=O)(=O)C1 (centres undefined),0.101
22,CCOC(=O)Cc1csc(NC(=O)c2cnc3scc(C)n3c2=O)n1,-0.301

row,Structure (SMILES),z-score
1,O=C1CSC2=NCN(c3ccccc3)CN12,-0.295
2,COC(=O)c1cccc(NC(=O)C23CC4CC(C2)CC(n2cncn2)(C4)C3)c1,-0.387
3,O=C(Cn1nc(C(F)F)cc1C(F)F)N/N=C/c1ccc2c(c1)OCO2,-0.226
4,Cc1ccc(S(=O)(=O)N2CCCCC2)cc1C(=O)Nc1ccc2cn[nH]c2c1,-0.545
5,Cc1ccc(-c2nnc(-c3ccc(NC(=O)c4ccco4)cc3)o2)cc1,0.261
6,C/C(=N\NC(=O)c1ccoc1C)c1cccnc1,0.566
7,COCCOC(=O)C1=C(C)N=C2SCCC(=O)N2C1c1ccc(OC(=O)c2ccco2)cc1 (centres undefined),1.5
8,Cc1nnsc1C(=O)NC1CCCCC1,-0.000764
9,O=C(CSCc1c(Cl)cccc1Cl)Nc1ccccc1C(=O)N1CCOCC1,-0.0398
10,CC(CNCc1ccc2c(c1)OCO2)NCc1ccc2c(c1)OCO2 (centres undefined),-0.342
11,CCC(C)Nc1nc(-c2ccc3c(c2)NC(=O)CO3)cs1 (centres undefined),-0.122
12,CCCCCCn1cnc2c(c1=O)c1nc3ccccc3nc1n2/N=C/c1ccco1,-1.38
13,Cc1nc(NC(=O)/C=C/c2ccccc2)sc1C(=O)Nc1ccccc1Cl,-0.0413
14,O=C(CSc1ncccc1C(=O)O)c1ccc2ccccc2c1,-0.64
15,COc1ccc(S(=O)(=O)NC(C)C(=O)O)cc1 (centres undefined),-0.408
16,O=C(CCc1nc2ccccc2s1)c1ccccc1,-0.0627
17,Cc1ccnc(NS(=O)(=O)c2ccccc2)n1,-0.0554
18,COc1ccc(CN2C3CCCC2CC(NC(=O)Nc2ccccc2)C3)cc1 (centres undefined),0.209
19,Cc1ccc(-c2cn(S(=O)(=O)c3ccc(C)cc3)nc2N)cc1,-0.279
20,O=C(NCc1ccc(F)cc1)C(Cc1ccccc1)NS(=O)(=O)c1cccs1 (centres undefined),-0.208
21,FC(F)Sc1nnc(-c2cccs2)n1-c1ccccc1,0.436
